Test results reported in PMC4336329 (PLoS ONE, 2015).
Among all 310,000 compounds or so, about 14,000 (4.5%) showed an effect of 50% or more. The effect is printed as a negative number. The list shows a part of the results.

Molecular target: human ether-à-go-go-related gene (hERG) potassium channel (human, UniProt Q12809)
Assay: primary screen, population patch clamp on CHO cells stably expressing hERG
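Note: peak tail current of the secondary pulse compared with the same well before compound.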

Chain of human ether-à-go-go-related gene (hERG) potassium channel (Q12809 whole entry, looked up): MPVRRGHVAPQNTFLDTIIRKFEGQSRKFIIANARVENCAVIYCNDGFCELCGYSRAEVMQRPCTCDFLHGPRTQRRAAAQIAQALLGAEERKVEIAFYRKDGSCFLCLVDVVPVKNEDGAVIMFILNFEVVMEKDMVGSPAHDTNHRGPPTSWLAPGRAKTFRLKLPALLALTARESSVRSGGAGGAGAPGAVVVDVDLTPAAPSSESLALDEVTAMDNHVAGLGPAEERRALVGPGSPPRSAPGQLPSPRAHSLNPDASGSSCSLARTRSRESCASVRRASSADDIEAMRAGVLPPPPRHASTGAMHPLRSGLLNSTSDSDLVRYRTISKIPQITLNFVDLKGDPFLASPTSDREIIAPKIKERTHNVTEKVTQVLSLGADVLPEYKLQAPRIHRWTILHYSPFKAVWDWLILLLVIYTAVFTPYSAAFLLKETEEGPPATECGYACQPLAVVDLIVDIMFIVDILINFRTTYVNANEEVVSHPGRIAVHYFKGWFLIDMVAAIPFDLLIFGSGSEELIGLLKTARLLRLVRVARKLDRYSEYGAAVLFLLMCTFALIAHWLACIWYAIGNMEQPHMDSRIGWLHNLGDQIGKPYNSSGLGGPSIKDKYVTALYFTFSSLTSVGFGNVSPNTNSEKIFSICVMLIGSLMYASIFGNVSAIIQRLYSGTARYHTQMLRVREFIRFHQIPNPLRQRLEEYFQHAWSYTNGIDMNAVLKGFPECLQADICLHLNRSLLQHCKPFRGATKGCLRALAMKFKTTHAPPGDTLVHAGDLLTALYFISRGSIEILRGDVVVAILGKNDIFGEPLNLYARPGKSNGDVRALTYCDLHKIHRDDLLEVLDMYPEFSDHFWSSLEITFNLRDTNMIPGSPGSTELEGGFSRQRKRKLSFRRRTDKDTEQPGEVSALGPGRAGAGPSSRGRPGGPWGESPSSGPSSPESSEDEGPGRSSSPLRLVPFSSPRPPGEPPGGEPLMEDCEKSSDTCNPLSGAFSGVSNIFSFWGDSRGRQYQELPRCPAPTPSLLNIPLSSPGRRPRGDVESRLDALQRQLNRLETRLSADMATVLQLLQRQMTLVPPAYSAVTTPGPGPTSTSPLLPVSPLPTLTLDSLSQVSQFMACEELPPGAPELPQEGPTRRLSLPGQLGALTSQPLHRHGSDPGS

| SMILES | hERG current change (%, negative = inhibition) at 10uM [%] |
| --- | --- |
| COc1ccccc1NC(=O)Cn1ncc2c1-c1ccccc1OC2 | -5.92 |
| O=C(Cn1c(C(F)(F)F)nc2ccccc21)OCC(=O)c1c[nH]c2ccccc12 | 11.2 |
| Cn1nc(-c2ccccc2)cc1NS(=O)(=O)c1ccc(C#N)cc1 | 11.4 |
| COc1ccccc1/C=C/C(=O)NCC(=O)N/N=C/c1cc(Br)ccc1OC | -3.8 |
| OCC1(CCc2ccccc2)CCCN(CCCc2ccccc2)C1 (stereo not drawn) | -70.9 |
| CCc1cc(C(=O)N2CCCC(CNS(=O)(=O)c3cccs3)C2)n(C)n1 (stereo not drawn) | 22.7 |
| CCn1c(CC(=O)Nc2ccc(F)cc2)nnc1SCC(=O)NC1CCCC1 | -0.544 |
| CCOC(=O)Cn1c(N2CCOCC2)nc2c1c(=O)[nH]c(=O)n2C | 9.66 |
| Cc1ccc(Cl)cc1NC(=O)C1CCCCC1C(=O)O (stereo not drawn) | -8 |
| S=C(NC1CC2CCC1C2)N1CCN(c2cccc(Cl)c2)CC1 (stereo not drawn) | 11.3 |
| O=C1c2ccccc2C(=O)N1c1nc(-c2cccs2)cs1 | -2.75 |
| CCOc1ccc(-n2c(SCC(=O)Nc3ccc(C(=O)O)cc3)nc3ccccc3c2=O)cc1 | 12.6 |
| CCOC(=O)C1(Cc2cccc(OC)c2)CCCN(S(=O)(=O)CC)C1 (stereo not drawn) | -0.0135 |
| Cc1cccc(C(=O)NNC(=O)/C=C/C(=O)O)c1 | 22.7 |
| C=CCNC(=O)c1onc(CSc2ccc(OC)cc2)c1C(=O)O | 11.4 |
| S=c1[nH]nc(C2(c3ccccc3)CCCC2)o1 | -33.1 |
| CC(=O)N/N=C/c1ccc(OCCOc2ccc(Br)cc2)cc1 | -3.01 |
| Cn1ncc2c(Nc3ccc(Br)cc3)nc(Nc3ccc(Br)cc3)nc21 | 13.7 |
| CCOC(=O)C1=C(C)Nc2nc(SC)nn2C1c1ccc(C(=O)OC)cc1 (stereo not drawn) | 5.26 |

| SMILES | hERG current change (%, negative = inhibition) at 10uM [%] |
| --- | --- |
| CCOC(=O)c1ccc(/C=N/O)[n+](Cc2ccccc2)c1.[Br-] | 10.6 |
| Cc1noc(NS(=O)(=O)c2ccc(NC(=O)c3nn(-c4ccc(F)cc4)ccc3=O)cc2)c1C | -8.79 |
| O=C(NNC(=S)NC(=O)c1cccnc1)c1ccc(Cl)cc1 | 18.8 |
| Cc1cc2n(n1)SC(Nc1ccc(F)cc1)N2 (stereo not drawn) | -10.6 |
| CC[C@H](C)/C=C(C)/C=C/C1=CC2=CC(=O)[C@]3(C)OC(=O)[C@@H](C(C)=O)[C@@H]3C2=CO1 | 4.65 |
| Cc1csc(SCC(=O)NC(=O)NC2CCCC2)n1 | 25.2 |
| O=C(/C=C/c1ccc(Cl)cc1Cl)N(Cc1ccc(Cl)cc1)C1CCS(=O)(=O)C1 (stereo not drawn) | 11.1 |
| COc1cc(NC(=O)C(=O)NCCN(C)C)c(OC)cc1Cl | 8.41 |
| O=C1C2CCCN2C(c2ccccc2F)N1c1cccc(Cl)c1 (stereo not drawn) | 3.69 |
| CCN(CC)CCN1C(=O)C(=O)/C(=C(/O)c2ccc(F)cc2)C1c1ccncc1 (stereo not drawn) | 2.58 |
| O=C(NCCCCNC(=O)c1ccc(Cl)s1)c1ccc(Cl)s1 | 12.9 |
| O=C(c1ccc(Cl)cc1)N1N=CCC1(O)c1ccc(Cl)cc1 (stereo not drawn) | 15.7 |
| COc1ccc(N2CCN(C(=O)CCCOc3cc(=O)n(C)c4ccccc34)CC2)cc1 | -21.3 |
| Cc1ccccc1CCNC(=O)c1cc(C2CC2)nc2c1cnn2C(C)C | -15.8 |
| S=C(Nc1ccc(Oc2ccccc2)cc1)N1CCOCC1 | -38 |
| O=C1CCC(=O)N1c1nc2nc(-c3ccccc3)cc(-c3ccccc3)n2n1 | -40.6 |
| O=C(CCSc1ccccc1)N1CCN(c2ccccc2F)CC1 | -16.6 |
| CCN1C(=O)CSC1=Nc1ccc(Cl)c(Cl)c1 | 3.36 |
| CCOC(=O)N1CCN(C(=O)CSc2nc3c([nH]c4ccccc43)c(=O)n2C)CC1 | -2.23 |

| SMILES | hERG current change (%, negative = inhibition) at 10uM [%] |
| --- | --- |
| Oc1cccc(/C=N/c2c(-c3ccco3)nc3ccccn23)c1 | 6.9 |
| COC(=O)c1nonc1NCn1nnc2ccccc21 | 1.65 |
| CC(C)(C)OC(=O)N1Cc2ccccc2C[C@H]1C(=O)NC1CCCC1 | 10.4 |
| CCCCc1nnc(NC(=O)c2ccc(S(=O)(=O)N3CCOCC3)cc2)s1 | 2.84 |
| CCCNC(=O)Cn1c(=O)oc2cc(S(=O)(=O)N3CC(C)CC(C)C3)ccc21 (stereo not drawn) | -5.73 |
| Cc1ccc(NC(=O)c2cc(N3C(=O)C4CC=CCC4C3=O)ccc2N2CCCCC2)cc1 (stereo not drawn) | 1.46 |
| Cc1ccc(C)c(NC(=S)N(Cc2ccco2)C(C)c2cccs2)c1 (stereo not drawn) | -1.31 |
| COc1ccc(CCN2CC(C(=O)NCCN3CCOC3=O)CCC2=O)cc1 (stereo not drawn) | 13.6 |
| Cc1ccc(SCC(=O)NCCSCc2ccccc2)cc1 | -21.8 |
| Cc1ccc(CNC(=O)CCSCc2cccc(F)c2)cc1 | -0.165 |
| CCCCCNc1nc2ccccc2nc1NS(=O)(=O)c1cccs1 | -14.1 |
| CCC(C)[C@H](NC(=O)N1CCN(c2cccc(C(F)(F)F)c2)CC1)C(=O)OC (stereo partly drawn) | 4.78 |
| CC(=O)Nc1nc(CC(=O)c2ccccc2)cs1 | 8.68 |
| O=C(Nc1ccccc1C(=O)NCc1ccc(Cl)cc1)c1ccco1 | -29.1 |
| Cc1ccc(CC2C(=O)N(C)C(=O)N(C)C2=O)s1 | -6.64 |
| COc1ccc(NC(=O)c2ccc(-n3cncn3)c([N+](=O)[O-])c2)cc1OC | -2.52 |
| O=C(NCc1ccccc1)c1c[nH]c2ccc(F)cc2c1=O | 9.32 |
| C=C(C)Cn1c(Sc2nnc(C)s2)nc2c1c(=O)[nH]c(=O)n2C | 12.9 |
| O=C1CSC(c2ccc([N+](=O)[O-])cc2)N1c1ccccc1F (stereo not drawn) | 0.496 |
